Screen size: about 310,000 compounds; about 2,200 (0.71%) showed an effect of 50% or more. Effects have a minus sign here. This is one part of the list.
Target: human ether-à-go-go-related gene (hERG) potassium channel (human, UniProt Q12809)
Assay: primary screen, population patch clamp on CHO cells stably expressing hERG

Chain of human ether-à-go-go-related gene (hERG) potassium channel (Q12809 whole entry, looked up): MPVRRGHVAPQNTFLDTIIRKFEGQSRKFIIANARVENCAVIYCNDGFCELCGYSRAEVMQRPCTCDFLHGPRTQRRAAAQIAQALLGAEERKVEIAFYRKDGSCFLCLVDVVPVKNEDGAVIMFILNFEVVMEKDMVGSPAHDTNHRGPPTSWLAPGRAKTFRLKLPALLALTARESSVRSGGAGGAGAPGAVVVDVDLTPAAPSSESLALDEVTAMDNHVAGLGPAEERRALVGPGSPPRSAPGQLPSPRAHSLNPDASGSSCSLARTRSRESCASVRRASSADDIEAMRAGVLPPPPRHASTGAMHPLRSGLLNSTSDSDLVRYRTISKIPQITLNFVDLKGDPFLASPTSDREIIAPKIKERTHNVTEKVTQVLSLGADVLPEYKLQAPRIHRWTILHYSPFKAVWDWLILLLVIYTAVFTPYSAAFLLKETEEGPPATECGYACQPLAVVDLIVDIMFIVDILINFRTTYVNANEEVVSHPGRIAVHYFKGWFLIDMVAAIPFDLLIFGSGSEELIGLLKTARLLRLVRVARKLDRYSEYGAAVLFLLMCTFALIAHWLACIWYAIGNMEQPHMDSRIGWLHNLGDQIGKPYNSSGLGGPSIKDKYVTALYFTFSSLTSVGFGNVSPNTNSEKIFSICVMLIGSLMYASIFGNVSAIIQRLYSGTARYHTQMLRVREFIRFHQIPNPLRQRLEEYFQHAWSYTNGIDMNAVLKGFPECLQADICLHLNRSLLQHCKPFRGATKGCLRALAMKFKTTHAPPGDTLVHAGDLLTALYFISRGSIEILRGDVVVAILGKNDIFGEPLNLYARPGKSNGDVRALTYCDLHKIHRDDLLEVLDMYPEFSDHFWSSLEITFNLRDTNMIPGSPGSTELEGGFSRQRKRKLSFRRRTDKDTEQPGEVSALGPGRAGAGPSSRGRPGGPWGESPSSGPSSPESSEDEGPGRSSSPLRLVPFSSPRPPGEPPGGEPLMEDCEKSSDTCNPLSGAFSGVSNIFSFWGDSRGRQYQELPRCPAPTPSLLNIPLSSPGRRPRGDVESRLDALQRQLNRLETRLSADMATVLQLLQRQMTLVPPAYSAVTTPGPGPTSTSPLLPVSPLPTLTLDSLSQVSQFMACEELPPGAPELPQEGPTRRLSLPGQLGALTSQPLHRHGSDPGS

Compound | hERG current change (%, negative = inhibition) at 1uM [%]
NNC(=O)c1cc2cc3ccccc3nc2s1 | 8.54
CC1CCN(CCCNC(=O)c2n[nH]c(=O)c3ccccc23)CC1 | 10.2
O=C(Nc1ccccc1Cl)c1ccccc1Oc1ccc(C(F)(F)F)cc1[N+](=O)[O-] | 9.49
COc1cc(CCC(=O)NCc2ccc(F)cc2)cc(OC)c1OC | 14
CNC(=O)c1cccc(NC(=O)C(C)c2ccc3cc(OC)ccc3c2)c1 (centres unmarked) | 11.3
CCn1nc(C(=O)NCc2ccco2)c(Cl)c1Cl | 6.69
Cc1cc(NC(=O)CCC(=O)N(c2ccc(F)cc2)C(C(=O)NC2CCCC2)c2ccccc2)no1 (centres unmarked) | 21
COc1ccc(NC(=O)c2sc(NC(=O)COc3ccccc3)nc2C)cc1 | 13.9
Cc1cc(Nc2ccc3c(c2)OCCO3)c2cccc(C)c2n1.Cl | -7.12
Cc1ccc(CCNC(=O)C2CCC(=O)N(Cc3ccccc3F)C2)o1 (centres unmarked) | 1.01
O=C(COC(=O)C1(c2ccccc2)CC1)NNC(=O)c1ccccc1 | 2.02
Oc1ccccc1C1=NN(c2ccccc2)C(c2ccc(F)cc2)C1 (centres unmarked) | 6.18
O=C(Nc1ccon1)Nc1ccccc1C(F)(F)F | 19
Cc1cccc2sc(NC(=O)C3CCN(S(=O)(=O)c4cc([N+](=O)[O-])ccc4Cl)CC3)nc12 | 7.26
Cn1c(CC(=O)Nc2ccccc2)nnc1SCCOc1ccccc1 | 4.76
Cc1cc(C)n(CCc2nc(-c3cc4ccccc4o3)cs2)n1 | 5.19
c1ccc(-c2cc3ccccc3nc2N2CCCC2)cc1 | 10.7
CC(=O)NCCCCCCNC(C)=O | 5.3
Cn1c(=O)c(=O)n(C)c2cc(S(=O)(=O)N3CCN(Cc4ccccc4)CC3)ccc21 | -28.8
CCOc1ccc(N(CC(=O)N2CCN(c3ccccc3F)CC2)S(=O)(=O)c2c(C)noc2C)cc1 | 8.98
CC1CC(=O)c2cnc(Nc3cccc(C(F)(F)F)c3)nc2C1 (centres unmarked) | 10.9
CN1CCN(S(=O)(=O)c2ccc(NC(=O)c3cccc(F)c3)cc2)CC1 | 10.1

Compound | hERG current change (%, negative = inhibition) at 1uM [%]
O=C(NNC(=O)C1[C@H]2CCCC[C@@H]12)c1ccc(=O)oc1 (some centres unmarked) | 13.6
CCOc1cccc(/C(O)=C2/C(=O)C(=O)N(CCN3CCOCC3)C2c2cccnc2)c1 (centres unmarked) | 14.6
CC(=O)c1cccc(NC(=O)c2ccc([N+](=O)[O-])o2)c1 | -6.03
COc1ccc(-c2nc(CN3CCC(C(=O)N4CCOCC4)CC3)c(C)o2)c(OC)c1 | 15.2
CCOc1ccc(-c2[nH]nc3c2C(c2ccc(O)cc2)C(C#N)=C(N)O3)cc1 (centres unmarked) | 7.41
Cc1ccc(NC(=O)c2sc3nc4c(c(-c5ccco5)c3c2N)CCC4)cc1 | 16.6
CC(=C\C(=O)O)/C(=C/c1ccc(C)o1)C(=O)O | 10.3
CC(=O)c1ccc(N(C(=O)CNC(=O)c2ccco2)C(C(=O)NCC2CCCO2)c2ccccc2)cc1 (centres unmarked) | 10.1
COc1ccc(CN(C)C(=O)c2cccc(C(=O)N(C)Cc3ccc(OC)cc3)c2)cc1 | -49.1
COc1ccccc1NC1=NC(CO)(CO)CS1 | 15.6
CCOc1ccccc1C(=O)NCC(=O)NC(C)c1ccc(-n2ccnc2)cc1 (centres unmarked) | -58.3
C[C@H](CCC(=O)NCC(=O)[O-])[C@H]1CC[C@H]2[C@@H]3[C@H](O)C[C@@H]4C[C@H](O)CC[C@]4(C)[C@H]3C[C@H](O)[C@]12C.O.[Na+] | -0.765
CCNC(=O)CC1SC(=Nc2cccc3ccccc23)N(C)C1=O (centres unmarked) | 10.9
Cc1c(Cl)ccc2sc(NC(=O)C3CC3)nc12 | 16.2
Cc1nnc(NN2CCOCC2)[nH]c1=O | 19.3
CCN1CCN(S(=O)(=O)c2ccc(Cl)c(C(=O)NC(C)c3ccccc3Cl)c2)CC1 (centres unmarked) | 5.99
O=S(=O)(c1ccc(Cl)cc1Cl)n1ccc2cccnc21 | 13.2
COc1ccc(-c2nnc(CSc3nc4ccccc4c(=O)n3C)o2)cc1OC | 13.8
Cc1ccc(NC(=S)NCC(C)CSc2ccc(Cl)cc2)cc1 (centres unmarked) | 4.54
Cc1ccc(NC(=O)CN2CCCN(S(=O)(=O)c3ccc(Br)s3)CC2)cc1 | -35.4
COCCCN1C(=O)c2ccc(C(=O)O)cc2C1=O | 0.4
O=C(Nc1nnc(SCc2ccccc2)s1)c1cccc([N+](=O)[O-])c1 | 4.69

Reference: publication PMC4336329 (PLoS ONE, 2015)
